Measured values published in the antibiotic and cytotoxicity screens of Wong et al. (2023).
The other results are listed elsewhere or left out.

Legend:
HSkMC = human skeletal muscle cells; experiment: cytotoxicity call (relative viability < 0.9); conditions: 10 µM
HepG2 = experiment: cytotoxicity call (relative viability < 0.9); conditions: 10 µM
S. aureus RN4220 = experiment: growth inhibition call (relative growth <= 0.2); conditions: 50 µM

| SMILES | cytotoxicity call (HSkMC) | cytotoxicity call (HepG2) | growth inhibition call (S. aureus RN4220) |
| --- | --- | --- | --- |
| C[C@@H]1CN([C@H](C)CO)C(=O)c2cc(NS(=O)(=O)c3cn(C)cn3)ccc2O[C@@H]1CN(C)CC1CCCCC1 | inactive | inactive | inactive |
| C[C@@H]1CN([C@@H](C)CO)C(=O)c2cc(NS(=O)(=O)c3cn(C)cn3)ccc2O[C@@H]1CN(C)C(=O)Nc1ccc(F)cc1 | inactive | inactive | inactive |
| COc1ccc(S(=O)(=O)N(C)C[C@@H]2Oc3c(NC(=O)c4ccncc4)cccc3C(=O)N([C@H](C)CO)C[C@H]2C)cc1 | inactive | inactive | inactive |
| O=C(NCc1ccccc1)[C@@]1(CCS(=O)(=O)c2ccccc2)COC(c2ccc(OCCCO)cc2)=N1 | inactive | inactive | inactive |
| C[C@H](CO)N1C[C@H](C)[C@H](CN(C)Cc2ccc(Cl)c(Cl)c2)Oc2ccc(NC(=O)Nc3cccc4ccccc34)cc2C1=O | inactive | active | inactive |
| Cc1ccc(S(=O)(=O)N(C)C[C@@H]2Oc3ccc(NC(=O)c4ccncc4)cc3CC(=O)N([C@@H](C)CO)C[C@@H]2C)cc1 | inactive | inactive | inactive |
| C[C@H](CO)N1C[C@H](C)[C@@H](CN(C)Cc2ccc(Oc3ccccc3)cc2)Oc2c(NC(=O)c3ccncc3)cccc2C1=O | inactive | inactive | inactive |
| C[C@H]1CN([C@@H](C)CO)C(=O)Cc2cc(NC(=O)CCC(F)(F)F)ccc2O[C@H]1CN(C)S(=O)(=O)c1cn(C)cn1 | inactive | inactive | inactive |
| C[C@@H]1CN([C@@H](C)CO)C(=O)c2cc(NC(=O)Nc3ccc(F)cc3)ccc2O[C@@H](C)CCCCO[C@H]1CN(C)S(=O)(=O)c1cccs1 | inactive | active | inactive |
| CC(C)NC(=O)N(C)C[C@@H]1OCCCC[C@@H](C)Oc2ccc(NS(=O)(=O)c3cn(C)cn3)cc2C(=O)N([C@@H](C)CO)C[C@H]1C | inactive | inactive | inactive |
| CC(C)CCCC(C)C1CCC2C3CC=C4CC(O)CCC4(C)C3CCC12C (stereo not given) | inactive | inactive | inactive |
| COc1ccc2c3c([nH]c2c1)[C@@H](CO)N(CC1CCCC1)C[C@]13CCN(CC1)C(=O)c1ccc(cc1)F | active | inactive | inactive |
| C[C@@H]1CN([C@@H](C)CO)C(=O)Cc2cc(NC(=O)Nc3ccccc3)ccc2O[C@@H]1CN(C)Cc1ccc(Cl)c(Cl)c1 | active | active | inactive |
| COc1ccc(NC(=O)N(C)C[C@H]2Oc3ccc(NS(=O)(=O)c4c(C)noc4C)cc3C(=O)N([C@H](C)CO)C[C@H]2C)cc1 | inactive | inactive | inactive |
| COc1ccc(S(=O)(=O)Nc2ccc3c(c2)CC(=O)N([C@H](C)CO)C[C@H](C)[C@H](CN(C)Cc2ccc(Cl)c(Cl)c2)O3)cc1 | active | active | inactive |
| COCC#Cc1ccc2c(c1)O[C@H](CN(C)S(=O)(=O)c1cccc(OC)c1)[C@H](C)CN([C@H](C)CO)S2(=O)=O | inactive | inactive | inactive |
| C[C@H](CO)N1C[C@H](C)[C@@H](CN(C)C(=O)Nc2cccc3ccccc23)Oc2ccc(NC(=O)Cc3ccccc3)cc2C1=O | inactive | inactive | inactive |
| C[C@H]1CN([C@@H](C)CO)C(=O)c2cc(NC(=O)Nc3cccc4ccccc34)ccc2O[C@H]1CN(C)Cc1ccccc1 | inactive | inactive | inactive |
| C[C@H](CO)N1C[C@H](C)[C@@H](CN(C)S(C)(=O)=O)OCCCC[C@H](C)Oc2ccc(NC(=O)CCCN(C)C)cc2C1=O | inactive | inactive | inactive |
| CO[C@H]1CN(C)C(=O)c2ccc(NS(=O)(=O)c3cn(C)cn3)cc2OC[C@@H](C)N(CC2CC2)C[C@@H]1C | inactive | inactive | inactive |
| C=C1C(=O)OC2C1CCC(C)=CCCC1(C)OC21 (stereo not given) | active | active | inactive |
| C[C@@H]1CCCCO[C@@H](CN(C)S(=O)(=O)c2ccc(Cl)cc2)[C@@H](C)CN([C@@H](C)CO)C(=O)c2cc(NS(=O)(=O)c3ccccc3)ccc2O1 | inactive | inactive | inactive |
| Cc1ccc2cccc(OCCOc3ccccc3C(C)C)c2n1 | inactive | inactive | inactive |
| COc1ccccc1CNC(=O)C[C@@H]1C[C@H]2c3cc(NC(=O)Nc4ccc(C(F)(F)F)cc4)ccc3O[C@H]2[C@@H](CO)O1 | inactive | active | inactive |
| c1ccc(Nc2nc3c(ccc4ccccc43)s2)cc1 | inactive | active | inactive |
